Results: the BET-seq Pho4 binding data (Le et al. 2018)
Some of the results follow. Values were computed here from the reads of four pooled replicates and scatter widely.

Target: T1, Pho4 (S. cerevisiae) (UniProt P07270)
T1 sequence: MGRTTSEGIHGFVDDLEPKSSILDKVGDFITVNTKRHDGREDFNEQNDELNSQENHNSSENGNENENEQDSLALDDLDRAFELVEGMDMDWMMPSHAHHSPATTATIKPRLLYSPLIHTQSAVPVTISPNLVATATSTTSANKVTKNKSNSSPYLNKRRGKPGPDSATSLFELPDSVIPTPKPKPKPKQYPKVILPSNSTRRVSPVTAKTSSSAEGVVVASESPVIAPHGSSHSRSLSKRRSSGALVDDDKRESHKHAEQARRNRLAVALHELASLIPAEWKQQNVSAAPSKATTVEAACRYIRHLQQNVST
Assay: relative binding free energy (BET-seq); higher = weaker binding
Details: reference: library average

Row | Sequence | relative binding free energy
1 | ACTATCACGTGGTGGG | 0 kcal/mol
2 | GGAATCACGTGAGGGG | 0.27 kcal/mol
3 | GTACGCACGTGGTGTA | -0.14 kcal/mol
4 | GGGATCACGTGTAATG | 0.24 kcal/mol
5 | GTGCGCACGTGAGGTA | 0.19 kcal/mol
6 | AAGGGCACGTGTGACT | -0.03 kcal/mol
7 | CGTGGCACGTGGAGGA | -0.1 kcal/mol
8 | GGGGACACGTGGAGTT | 0.16 kcal/mol
9 | GTGGTCACGTGGTCGC | 0.21 kcal/mol
10 | GTCTGCACGTGTGCTT | 0.12 kcal/mol
11 | TTTTCCACGTGAATTG | 0.27 kcal/mol
12 | ATAGTCACGTGAGAGT | 0.18 kcal/mol
13 | GGGTACACGTGAGGTC | 0.34 kcal/mol
14 | GTTTACACGTGATTCT | 0.35 kcal/mol
15 | CGGAGCACGTGGCGGG | -0.21 kcal/mol
16 | TGTGCCACGTGGTGAA | -0.1 kcal/mol
17 | TGTTACACGTGGAGTG | 0.03 kcal/mol
18 | ATGGACACGTGGATGG | 0.07 kcal/mol
19 | CGAGTCACGTGTGTGC | 0.22 kcal/mol
20 | ACTTGCACGTGGAGGA | 0.15 kcal/mol
21 | AGGTTCACGTGTAAAA | 0.43 kcal/mol
22 | AAGTGCACGTGGATCG | -0.02 kcal/mol
23 | GGATTCACGTGATAGG | 0.36 kcal/mol

Row | Sequence | relative binding free energy
24 | AGTCGCACGTGCGTGG | -0.16 kcal/mol
25 | AAGGGCACGTGGATAA | -0.09 kcal/mol
26 | AGTATCACGTGGAGGA | 0 kcal/mol
27 | AATTGCACGTGGTCGA | -0.09 kcal/mol
28 | CAGGTCACGTGTGTGG | 0.09 kcal/mol
29 | GGGGGCACGTGGATAT | -0.04 kcal/mol
30 | TGCGGCACGTGTGGTT | 0.13 kcal/mol
31 | GATGCCACGTGGGTGA | -0.14 kcal/mol
32 | AGATCCACGTGTGTGG | 0.1 kcal/mol
33 | TGGGGCACGTGGACAT | -0.06 kcal/mol
34 | TGTTGCACGTGCGATT | 0.13 kcal/mol
35 | TGAAGCACGTGTAGTT | -0.03 kcal/mol
36 | TTAATCACGTGTGACT | 0.11 kcal/mol
37 | TGAGTCACGTGTGTAA | 0.09 kcal/mol
38 | GTACTCACGTGTGGGT | 0.25 kcal/mol
39 | ACGGTCACGTGGATGG | 0.13 kcal/mol
40 | ATGAGCACGTGGAGTT | 0.04 kcal/mol
41 | TCTAACACGTGTGTTA | 0 kcal/mol
42 | GCATTCACGTGTTTTT | 0.25 kcal/mol
43 | TCTTGCACGTGGAATT | 0.13 kcal/mol
44 | GTTTCCACGTGGAAGT | 0.28 kcal/mol
45 | CGGCGCACGTGGAGTG | -0.06 kcal/mol
46 | GTGGGCACGTGTTGTC | -0.04 kcal/mol

Row | Sequence | relative binding free energy
47 | CGTGGCACGTGAGAAG | 0.19 kcal/mol
48 | GGCCGCACGTGGAGGT | 0.03 kcal/mol
49 | GTTGTCACGTGTATTA | 0.21 kcal/mol
50 | AGTGTCACGTGGAGTA | 0.06 kcal/mol
51 | ATTTTCACGTGTTGAT | 0.35 kcal/mol
52 | AGTAGCACGTGCTGAG | -0.15 kcal/mol
53 | TAGGTCACGTGAGACG | 0.28 kcal/mol
54 | ATGCACACGTGTGTGA | 0.04 kcal/mol
55 | TTATCCACGTGTTGGA | 0.04 kcal/mol
56 | GAATGCACGTGGGTGT | -0.08 kcal/mol
57 | CTAGTCACGTGAAGGT | 0.26 kcal/mol
58 | AAAGGCACGTGGGGTT | -0.2 kcal/mol
59 | GATAGCACGTGTGAGG | 0.09 kcal/mol
60 | TGTGCCACGTGGGTGC | -0.35 kcal/mol
61 | GTAGGCACGTGGCAGT | -0.14 kcal/mol
62 | TTTATCACGTGTAGCG | 0.28 kcal/mol
63 | GATTCCACGTGGGTTA | 0 kcal/mol
64 | GTACGCACGTGTTGGA | -0.07 kcal/mol
65 | GGGTCCACGTGCGGTA | -0.02 kcal/mol
66 | GAAGGCACGTGTGTTT | 0.07 kcal/mol
67 | GTGTTCACGTGGATCA | 0.28 kcal/mol
68 | CGTGGCACGTGTCCGG | -0.14 kcal/mol
69 | TGATGCACGTGGCGGC | -0.07 kcal/mol

Row | Sequence | relative binding free energy
70 | TGGAACACGTGTCTTT | 0.17 kcal/mol
71 | TATGTCACGTGGTAGG | 0.04 kcal/mol
72 | GGGTACACGTGGTAAG | -0.04 kcal/mol
73 | CGGGTCACGTGGGGGC | -0.07 kcal/mol
74 | TGGGTCACGTGAATAG | 0.29 kcal/mol
75 | TTGATCACGTGGTGTT | 0.14 kcal/mol
76 | CTTGGCACGTGCTTTT | -0.24 kcal/mol
77 | TTTTGCACGTGAGCGC | 0.2 kcal/mol
78 | TGTGACACGTGGGTGC | -0.06 kcal/mol
79 | TTAGGCACGTGGGGTT | -0.16 kcal/mol
80 | TTGGGCACGTGCGCGC | -0.3 kcal/mol
81 | AATGGCACGTGGACGT | -0.22 kcal/mol
82 | GCTTTCACGTGTTGTT | 0.4 kcal/mol
83 | TTGTGCACGTGAGTCG | 0.15 kcal/mol
84 | TGTTCCACGTGGTCTT | 0.04 kcal/mol
85 | TGTGCCACGTGTAAGG | -0.01 kcal/mol
86 | TGTCGCACGTGTAGAA | 0.13 kcal/mol
87 | CGCGGCACGTGGGTTT | -0.21 kcal/mol
88 | TCTTTCACGTGTGCTT | 0.16 kcal/mol
89 | GGGGGCACGTGTCTGG | -0.11 kcal/mol
90 | AGTATCACGTGCGTGG | 0.05 kcal/mol
91 | TTTGACACGTGTGTGC | 0.13 kcal/mol
92 | TTATGCACGTGAACGT | 0.04 kcal/mol

Row | Sequence | relative binding free energy
93 | TTATGCACGTGTGTCA | -0.28 kcal/mol
94 | GGTTACACGTGCGTTG | 0.09 kcal/mol
95 | TAAGACACGTGCGGAT | 0.08 kcal/mol
96 | AGTTACACGTGGGCCG | -0.01 kcal/mol
97 | TTTCTCACGTGGTGTT | 0.16 kcal/mol
98 | GGCAGCACGTGGATTG | -0.05 kcal/mol
99 | TATGGCACGTGTACGG | -0.07 kcal/mol
100 | TGAGCCACGTGGTGCT | -0.1 kcal/mol
101 | GGATGCACGTGTTTGC | 0.08 kcal/mol
102 | ATTGACACGTGCGGAT | 0.15 kcal/mol
103 | TTTAGCACGTGGATTC | 0.07 kcal/mol
104 | GAGGGCACGTGGGAAA | -0.04 kcal/mol
105 | TCGGTCACGTGGGGTG | -0.1 kcal/mol
106 | CATGGCACGTGGAGTA | -0.22 kcal/mol
107 | CTTATCACGTGGTTGG | 0.09 kcal/mol
108 | CATTGCACGTGATGAT | 0.04 kcal/mol
109 | GACTTCACGTGGTGCT | 0.36 kcal/mol
110 | TAGTTCACGTGGTAGT | 0.23 kcal/mol
111 | CGCTGCACGTGGGGGC | -0.19 kcal/mol
112 | TTTGCCACGTGTTTCG | -0.02 kcal/mol
113 | AAAGTCACGTGTGAAG | 0.26 kcal/mol
114 | GGGCACACGTGTGGGT | 0.22 kcal/mol
115 | ACTGGCACGTGTCGGG | -0.12 kcal/mol
